# Experimental data from the supplement of paper PMC9135407.
# Values joined by “and” are separate entries in the source; they are usually repeats but may differ in a detail not shown here. Equal values may be shown once. Where a name gives a salt, the structure may show the parent alone. Out of some 5,800 compounds screened, about 620 (11%) showed activity.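 Rule for the calls: active = score above a cut-off or among the top three wells of a plate; in these data no inactive exceeds 0.85.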 The list shows a part of the results, in another mix than the full data.
# Tested on: primary human hepatic stellate cells (donor 1)
# Assay: scaled lipid accumulation score (0 = DMSO-like, 1 = nortriptyline-like); higher = stronger HSC inactivation (lipid re-accumulation), active = hit call of the paper
# Details: 48 h
# [1] = library stock concentration: 3.33 mM
# [2] = library stock concentration: 10 mM
# [3] = library stock concentration: 1 mM
compound,measurement,setting,value
COc1c(C)c2c(c(O)c1C/C=C(\C)CCC(=O)OCCN1CCOCC1)C(=O)OC2 [Mycophenolate Mofetil],scaled lipid accumulation score,[1],inactive: ≤ 0
same,scaled lipid accumulation score,[2],inactive: ≤ 0
NCCS [Cysteamine HCl],scaled lipid accumulation score,[1],inactive: ≤ 0
same,scaled lipid accumulation score,[2],inactive: ≤ -0.001
NCCS [Mercaptamine hydrochloride],scaled lipid accumulation score,[2],inactive: 0.156
NCCS [Cysteamine hydrochloride],scaled lipid accumulation score,[2],inactive: ≤ -0.05
COCCOC(=O)C1=C(C)NC(C)=C(C(=O)OC(C)C)C1c1cccc([N+](=O)[O-])c1 (configuration not stated),scaled lipid accumulation score,[2],inactive: 0.023
COCCOC(=O)C1=C(C)NC(C)=C(C(=O)OC(C)C)C1c1cccc([N+](=O)[O-])c1 (configuration not stated) [Nimodipine],scaled lipid accumulation score,,inactive: ≤ 0
same,scaled lipid accumulation score,[1],inactive: 0.049
same,scaled lipid accumulation score,library stock concentration: 4.8 mM,inactive: ≤ -0.006 and inactive: ≤ 0
same,scaled lipid accumulation score,library stock concentration: 12 mM,inactive: 0.052
CCCCOc1cc(C(=O)NCCN(CC)CC)c2ccccc2n1.Cl [Dibucaine HCl],scaled lipid accumulation score,[2],active: 0.977
"COC(=O)[C@@H](N)Cc1ccc(O)c(O)c1 [L-3,4-Dihydroxyphenylalanine methyl ester hydrochloride]",scaled lipid accumulation score,[2],inactive: ≤ -0.07
C[C@]12CCC(=O)C=C1C=C[C@@H]1[C@@H]2CC[C@@]2(C)[C@H]1CC[C@@]21CCC(=O)O1 [Canrenone],scaled lipid accumulation score,library stock concentration: 5.9 mM,inactive: ≤ 0
same,scaled lipid accumulation score,[2],inactive: ≤ -0.027
COc1ccc2c(c1)c(CC(=O)O)c(C)n2Cc1ccc(Cl)cc1 [1-(4-Chlorobenzyl)-5-methoxy-2-methylindole-3-acetic acid],scaled lipid accumulation score,[2],inactive: 0.078
CC1(C)[C@@H](O)CC[C@]2(C)[C@H]3C(=O)C=C4[C@@H]5C[C@@](C)(C(=O)O)CC[C@]5(C)CC[C@@]4(C)[C@]3(C)CC[C@@H]12 [Enoxolone],scaled lipid accumulation score,[1],inactive: 0.016
same,scaled lipid accumulation score,[2],inactive: ≤ 0
C[C@H]1COC2(CCN(c3nc(=O)c4cc(C(F)(F)F)cc([N+](=O)[O-])c4s3)CC2)O1 (racemic) [BTZ043 Racemate],scaled lipid accumulation score,[1],inactive: ≤ 0
same,scaled lipid accumulation score,[2],inactive: ≤ 0
Oc1cc(O)c2c(c1)O[C@H](c1ccc(O)c(O)c1)[C@@H](O)C2 (racemic) [(+)-Catechin (hydrate)],scaled lipid accumulation score,[3],inactive: ≤ 0
Oc1cc(O)c2c(c1)O[C@H](c1ccc(O)c(O)c1)[C@@H](O)C2 (racemic) [(+)-Catechin Hydrate],scaled lipid accumulation score,[2],inactive: ≤ 0
Cc1ccc(C)c(OCCCC(C)(C)C(=O)O)c1 [Gemfibrozil],scaled lipid accumulation score,,inactive: ≤ 0
same,scaled lipid accumulation score,[1],inactive: ≤ 0
same,scaled lipid accumulation score,library stock concentration: 8 mM,inactive: ≤ 0 and inactive: ≤ -0.001
same,scaled lipid accumulation score,[2],inactive: ≤ 0
Cc1ccc(C)c(OCCCC(C)(C)C(=O)O)c1,scaled lipid accumulation score,[2],inactive: ≤ 0
O=c1[nH]c2cc(Cl)ccc2c(O)c1-c1cccc(Oc2ccccc2)c1,scaled lipid accumulation score,[2],inactive: 0.13 and inactive: ≤ 0
O=C(O)C[C@H](O)C[C@H](O)/C=C/c1c(C2CC2)nc2ccccc2c1-c1ccc(F)cc1,scaled lipid accumulation score,[2],inactive: ≤ 0 and inactive: 0.802
O=C(O)C[C@H](O)C[C@H](O)/C=C/c1c(C2CC2)nc2ccccc2c1-c1ccc(F)cc1 [Pitavastatin Calcium],scaled lipid accumulation score,[1],inactive: 0.373
same,scaled lipid accumulation score,[2],inactive: 0.131
CCC(CC)CNc1cc(C(=O)NCCN(C)C)cc(S(=O)(=O)Nc2ccc(OC)cc2)c1,scaled lipid accumulation score,[2],active: 0.996
CC(C)(C)c1cc(NC(=O)Nc2ccc(-c3cn4c(n3)sc3cc(OCCN5CCOCC5)ccc34)cc2)no1 [Quizartinib (AC220)],scaled lipid accumulation score,[2],active: 1.15
CC(C)[C@H](NS(=O)(=O)c1ccc(-c2ccc(Br)cc2)cc1)C(=O)O,scaled lipid accumulation score,[2],inactive: ≤ -0.001
C[C@H](NC(=O)CCc1nc2ccccc2c(=O)[nH]1)c1ccccc1,scaled lipid accumulation score,[1],inactive: ≤ -0.009
same,scaled lipid accumulation score,[2],inactive: ≤ 0
NCC(=O)CCC(=O)O [Aminolevulinic acid hydrochloride],scaled lipid accumulation score,[2],inactive: ≤ -0.027
NCC(=O)CCC(=O)O [Aminolevulinic Acid],scaled lipid accumulation score,[2],inactive: ≤ 0
NCC(=O)CCC(=O)O [5-Aminolevulinic acid HCl],scaled lipid accumulation score,[1],inactive: ≤ 0
same,scaled lipid accumulation score,[2],inactive: ≤ 0
NC(=O)c1ccc[n+]([C@@H]2O[C@H](COP(=O)([O-])OP(=O)(O)OC[C@H]3O[C@@H](n4cnc5c(N)ncnc54)[C@H](O)[C@@H]3O)[C@@H](O)[C@H]2O)c1 [Nadide],scaled lipid accumulation score,,inactive: ≤ 0
same,scaled lipid accumulation score,library stock concentration: 3 mM,inactive: 0.024
COc1ccc(CNc2nc(N(CCO)CCO)nc3c2ncn3C(C)C)cc1 [Cdk2 Inhibitor III],scaled lipid accumulation score,[1],inactive: 0.067
O=C(Nc1ccccc1)N[C@@H]1C[C@@H](C(=O)O)Nc2cc(Cl)cc(Cl)c21,scaled lipid accumulation score,[2],inactive: ≤ 0
COc1ccc(CN(CCN(C)C)c2ncccn2)cc1 [Thonzylamine hydrochloride],scaled lipid accumulation score,library stock concentration: 6.2 mM,inactive: ≤ 0
same,scaled lipid accumulation score,[2],inactive: 0.008
"N=C(N)SCCc1ccc(CCSC(=N)N)cc1 [1,4-PBIT (dihydrobromide)]",scaled lipid accumulation score,[3],inactive: 0.049
